Laboratory results taken from the BET-seq Pho4 binding data (Le et al. 2018).
Some of the results follow. Values were computed here from the reads of four pooled replicates and scatter widely.

target: T1, Pho4 (S. cerevisiae) (UniProt P07270); assay: relative binding free energy (BET-seq); higher = weaker binding; settings: reference: library average
T1 sequence: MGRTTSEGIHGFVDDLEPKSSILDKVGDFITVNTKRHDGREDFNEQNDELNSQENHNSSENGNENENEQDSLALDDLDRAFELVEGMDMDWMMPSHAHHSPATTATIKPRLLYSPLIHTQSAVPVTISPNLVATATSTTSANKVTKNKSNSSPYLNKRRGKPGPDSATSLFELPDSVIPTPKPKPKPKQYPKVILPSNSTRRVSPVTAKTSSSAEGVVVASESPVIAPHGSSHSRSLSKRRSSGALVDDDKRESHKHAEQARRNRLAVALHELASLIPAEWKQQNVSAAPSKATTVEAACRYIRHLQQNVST

Row | Sequence | relative binding free energy
1 | GGGCGCACGTGAGTTT | 0.21 kcal/mol
2 | ATGGACACGTGAGGAG | 0.29 kcal/mol
3 | CGGTGCACGTGGGAGG | -0.08 kcal/mol
4 | CGTTGCACGTGGTTTA | -0.06 kcal/mol
5 | TGTGGCACGTGTGGTA | -0.08 kcal/mol
6 | GCTTTCACGTGTGCGT | 0.29 kcal/mol
7 | CGAGGCACGTGGTGTG | -0.2 kcal/mol
8 | TTGTTCACGTGGTAAC | 0.31 kcal/mol
9 | AGGAACACGTGGGCTG | -0.1 kcal/mol
10 | GTTGCCACGTGTCTGG | -0.02 kcal/mol
11 | TGGGTCACGTGTTGAC | 0.06 kcal/mol
12 | CAAAGCACGTGGGCGG | -0.15 kcal/mol
13 | TTATGCACGTGCATTG | -0.08 kcal/mol
14 | CGATTCACGTGTTGGA | 0.32 kcal/mol
15 | GTAGGCACGTGCGGGT | -0.06 kcal/mol
16 | GGAAGCACGTGAAAGG | 0.11 kcal/mol
17 | TGATGCACGTGGATTG | -0.01 kcal/mol
18 | AGTTACACGTGTACGT | 0.24 kcal/mol
19 | GTAATCACGTGGTGCT | 0.06 kcal/mol
20 | TGGAGCACGTGTGGCC | -0.03 kcal/mol
21 | CGGAGCACGTGTAGTG | 0.05 kcal/mol
22 | GGTATCACGTGGTGTC | 0.14 kcal/mol
23 | TTGTTCACGTGTGCGC | 0.16 kcal/mol
24 | GGCATCACGTGGATGG | 0.04 kcal/mol
25 | TGTGTCACGTGACAGT | 0.25 kcal/mol

Row | Sequence | relative binding free energy
26 | AGGGCCACGTGAGTTG | 0.09 kcal/mol
27 | TTGGACACGTGGGAAG | -0.04 kcal/mol
28 | ATTATCACGTGAGGAT | 0.43 kcal/mol
29 | ATTTCCACGTGATGTA | 0.21 kcal/mol
30 | GGGCGCACGTGTGGTG | -0.03 kcal/mol
31 | GGTGCCACGTGGGCGG | -0.19 kcal/mol
32 | GGGCTCACGTGAGGAT | 0.44 kcal/mol
33 | TGAAACACGTGAGATG | 0.31 kcal/mol
34 | TTACGCACGTGTGGGC | -0.07 kcal/mol
35 | TTGATCACGTGAGTGG | 0.37 kcal/mol
36 | GGTAGCACGTGGCTAG | -0.2 kcal/mol
37 | GGTGGCACGTGGAAGC | 0.01 kcal/mol
38 | TAGTACACGTGTCATG | 0.09 kcal/mol
39 | CTTTGCACGTGGGGTA | -0.23 kcal/mol
40 | TATTTCACGTGCGGGC | 0.42 kcal/mol
41 | TGTTGCACGTGAAGAG | 0.15 kcal/mol
42 | TGTCGCACGTGATTAG | -0.02 kcal/mol
43 | ACATACACGTGGTGGT | 0.08 kcal/mol
44 | AACAGCACGTGGGGTG | -0.16 kcal/mol
45 | AATGACACGTGCGGGA | -0.05 kcal/mol
46 | GCGTGCACGTGGTTTT | 0 kcal/mol
47 | GCTTGCACGTGATGGG | -0.08 kcal/mol
48 | TTGGACACGTGAATAA | 0.45 kcal/mol
49 | CGCTGCACGTGGGGTT | -0.22 kcal/mol
50 | AGTGGCACGTGAGCTA | 0.1 kcal/mol

Row | Sequence | relative binding free energy
51 | AGGGGCACGTGGAGAA | -0.1 kcal/mol
52 | TTTTTCACGTGTTTTC | 0.31 kcal/mol
53 | TTGTGCACGTGATTGC | 0.15 kcal/mol
54 | GAGATCACGTGGTTAG | 0.06 kcal/mol
55 | TTGGCCACGTGGTTGG | -0.02 kcal/mol
56 | ATGTGCACGTGAGACG | 0.12 kcal/mol
57 | GGGGTCACGTGGCTCG | 0.15 kcal/mol
58 | CTTGGCACGTGTTAGA | -0.18 kcal/mol
59 | AATCTCACGTGTGGTA | 0.22 kcal/mol
60 | GGGGGCACGTGACTTG | 0.1 kcal/mol
61 | GGTTGCACGTGTCGTC | 0.21 kcal/mol
62 | TGCGTCACGTGTGGTG | 0.12 kcal/mol
63 | TATGTCACGTGCGGAT | 0.1 kcal/mol
64 | CTGGACACGTGGGTGG | -0.14 kcal/mol
65 | GCTGGCACGTGGGAGA | -0.1 kcal/mol
66 | CGTCACACGTGTTTGG | 0 kcal/mol
67 | CGATACACGTGGTGTT | 0.02 kcal/mol
68 | AGAAGCACGTGGTAGG | -0.27 kcal/mol
69 | CTTGACACGTGGGTGA | -0.11 kcal/mol
70 | TGACTCACGTGTGTGG | 0.23 kcal/mol
71 | GTGTGCACGTGACATG | 0.07 kcal/mol
72 | CTCGGCACGTGTGAGG | 0.09 kcal/mol
73 | AAGTACACGTGGGAGT | 0.05 kcal/mol
74 | TGTGGCACGTGGTGTT | -0.14 kcal/mol
75 | ATATTCACGTGAGGTG | 0.32 kcal/mol

Row | Sequence | relative binding free energy
76 | GGGGACACGTGGTTAA | -0.07 kcal/mol
77 | GTTATCACGTGCATGT | 0.11 kcal/mol
78 | GTCGCCACGTGGGGCT | -0.13 kcal/mol
79 | AGGGGCACGTGGTATG | -0.28 kcal/mol
80 | TTGTTCACGTGTAATA | 0.24 kcal/mol
81 | GATTTCACGTGAGTAG | 0.46 kcal/mol
82 | TGCGGCACGTGTGAGG | -0.02 kcal/mol
83 | ACGAGCACGTGTGGGC | -0.09 kcal/mol
84 | ATTAGCACGTGATCGG | -0.09 kcal/mol
85 | TCGCTCACGTGTGTGG | 0.07 kcal/mol
86 | TTGTACACGTGAAGCT | 0.31 kcal/mol
87 | TGTTACACGTGGTGTC | 0.13 kcal/mol
88 | GCCTTCACGTGAGGGG | 0.46 kcal/mol
89 | GAAGTCACGTGGAAGT | 0.28 kcal/mol
90 | GTGCGCACGTGTATTT | -0.1 kcal/mol
91 | GTTTGCACGTGAGCTT | 0.32 kcal/mol
92 | ATGGACACGTGTAGCT | 0.07 kcal/mol
93 | ATGGTCACGTGTTTCG | 0.17 kcal/mol
94 | TTTATCACGTGTATCT | 0.19 kcal/mol
95 | CTGCACACGTGTGGGG | 0.07 kcal/mol
96 | GGTGTCACGTGCTCGG | 0.02 kcal/mol
97 | CGACACACGTGTGGGT | 0.05 kcal/mol
98 | TGTAACACGTGGGCCG | -0.07 kcal/mol
99 | CGAGGCACGTGGGGAG | -0.24 kcal/mol
100 | GGTAGCACGTGGGAGC | -0.07 kcal/mol

Row | Sequence | relative binding free energy
101 | TGTTGCACGTGAGTCG | 0.24 kcal/mol
102 | AAGGTCACGTGGAATG | 0.14 kcal/mol
103 | GTGTACACGTGGTGGA | -0.04 kcal/mol
104 | GACGCCACGTGGAGGG | -0.08 kcal/mol
105 | GCTATCACGTGGGTGC | 0.14 kcal/mol
106 | ACGGGCACGTGTCGGA | -0.03 kcal/mol
107 | GTCATCACGTGTTTCG | 0.26 kcal/mol
108 | TTGGTCACGTGGTCGA | 0.06 kcal/mol
109 | AGAGACACGTGGGGTT | -0.05 kcal/mol
110 | ATCTGCACGTGAATGT | 0.4 kcal/mol
111 | GTCTTCACGTGGCTTT | 0.22 kcal/mol
112 | TGTTTCACGTGAACTG | 0.41 kcal/mol
113 | TGCATCACGTGAGGGG | 0.22 kcal/mol
114 | AGGTACACGTGTGTGT | 0.11 kcal/mol
115 | TGGTACACGTGAGAGA | 0.38 kcal/mol
116 | TTGTGCACGTGAACAG | 0.19 kcal/mol
117 | AGGGTCACGTGTAAGC | 0.08 kcal/mol
118 | GAGTTCACGTGTGGTC | 0.49 kcal/mol
119 | ATAAGCACGTGGTGTA | -0.22 kcal/mol
120 | GTTGCCACGTGTCGGT | -0.06 kcal/mol
121 | ATATGCACGTGCCTGG | 0.03 kcal/mol
122 | CGGCGCACGTGGGCAG | -0.15 kcal/mol
123 | CGTGGCACGTGGGCTT | -0.27 kcal/mol
124 | AACATCACGTGGTTGG | 0.08 kcal/mol
125 | AGTGGCACGTGTGTGT | -0.11 kcal/mol

Row | Sequence | relative binding free energy
126 | TGGAACACGTGGACGG | 0.07 kcal/mol
127 | TCTAGCACGTGGTGTG | -0.31 kcal/mol
128 | GTAGTCACGTGAGATG | 0.33 kcal/mol
129 | TTGAGCACGTGGAACG | 0.05 kcal/mol
130 | ATTATCACGTGTATGG | 0.06 kcal/mol
131 | GGGTGCACGTGTGATG | 0.18 kcal/mol
132 | CGACGCACGTGTGGGG | -0.17 kcal/mol
133 | TCATACACGTGAGGGT | 0.47 kcal/mol
134 | GTCTACACGTGTGTAT | 0.14 kcal/mol
135 | TTTGGCACGTGGACTG | -0.21 kcal/mol
136 | GGTCTCACGTGTATAT | 0.22 kcal/mol
137 | GGGCTCACGTGGGGGA | -0.01 kcal/mol
138 | GTGTACACGTGGCTGT | -0.15 kcal/mol
139 | CGGGGCACGTGGGTAA | -0.12 kcal/mol
140 | CGGTACACGTGGTTTA | -0.1 kcal/mol
141 | CGATACACGTGGTTTG | -0.09 kcal/mol
142 | ATTTGCACGTGATAAT | 0.27 kcal/mol
143 | ATTGTCACGTGCTGAG | 0.09 kcal/mol
144 | GGGAACACGTGTGGGC | 0.13 kcal/mol
145 | ATATACACGTGTAAGT | 0.14 kcal/mol
146 | AGTACCACGTGAGGTT | 0.17 kcal/mol
